# Measurements published in the supplement of paper PMC10037445.
# In all, about 2,900 compounds were measured (“NF-kB SEAP reporter activity, fold change vs agonist alone”: median about 0.99, highest 2% from about 2.6 on). The list shows a part of the results.
# Key:
# RAW-Dual [1] = assay: NF-kB SEAP reporter activity, fold change vs agonist alone; higher = enhanced NF-kB activity; settings: cytotoxicity flag (confluency mask): not cytotoxic
# Method in brief: (§1)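 Cytotoxic wells were those whose IncuCyte confluency was below 70% of agonist controls in both mask sets. The cells were RAW-Dual macrophages at 50,000 cells/well in DMEM on 384-well plates, dosed with 50 nL of library stock by pin tool, stimulated with a PRR agonist 1 h later, and kept at 37 °C, 5% CO2 for 20 hours. IRF and NF-κB reporter activity, as fold change over agonist-alone wells, came from supernatant read by QuantiLuc luminescence and QuantiBlue absorbance, respectively.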
# RAW-Dual [2] = assay: NF-kB SEAP reporter activity, fold change vs agonist alone; cytotoxicity flag (confluency mask): not cytotoxic; higher = enhanced NF-kB activity
# Method in brief: as §1
# [3] = library stock concentration (final ~1000-fold dilution): 10 mM, agonist: Imiquimod (TLR7) […]
# [4] = library stock concentration (final ~1000-fold dilution): 10 mM, agonist: MPLA (TLR4) […]
# [5] = agonist: ODN 1826 (TLR9) 0.5 ug/mL
# [6] = agonist: Pam2CSK4 (TLR2/6) 0.1 ug/mL
# [7] = agonist: Pam3CSK4 (TLR2/1) 0.1 ug/mL
smiles,measurement,setting,value
CN1CCN(C2=Nc3cc(Cl)ccc3Nc3ccccc32)CC1,NF-kB SEAP reporter activity,RAW-Dual [1]; [3],1.2
same,NF-kB SEAP reporter activity,RAW-Dual [1]; [4],1.2
CN1CCN(C2=Nc3cc(Cl)ccc3Nc3ccccc32)CC1 (library stock concentration (final ~1000-fold dilution): 10 mM),NF-kB SEAP reporter activity,RAW-Dual [2]; agonist: LPS (TLR4) 0.1 ug/mL,0.936
same,NF-kB SEAP reporter activity,RAW-Dual [2]; [5],0.6
same,NF-kB SEAP reporter activity,RAW-Dual [2]; [6],0.682
same,NF-kB SEAP reporter activity,RAW-Dual [2]; [7],0.809
CCC(=O)OC(OP(=O)(CCCCc1ccccc1)CC(=O)N1CC(C2CCCCC2)CC1C(=O)O)C(C)C (centres undefined),NF-kB SEAP reporter activity,"RAW-Dual [1]; library stock concentration (final ~1000-fold dilution): 10 mM water, agonist: Imiquimod (TLR7) […]",0.795
same,NF-kB SEAP reporter activity,"RAW-Dual [1]; library stock concentration (final ~1000-fold dilution): 10 mM water, agonist: MPLA (TLR4) […]",0.935
CCC(=O)OC(OP(=O)(CCCCc1ccccc1)CC(=O)N1CC(C2CCCCC2)CC1C(=O)O)C(C)C (centres undefined) (library stock concentration (final ~1000-fold dilution): 10 mM water),NF-kB SEAP reporter activity,RAW-Dual [2]; agonist: LPS (TLR4) 0.1 ug/mL,0.941
same,NF-kB SEAP reporter activity,RAW-Dual [2]; [5],1.05
same,NF-kB SEAP reporter activity,RAW-Dual [2]; [6],1.01
same,NF-kB SEAP reporter activity,RAW-Dual [2]; [7],0.946
Cc1c(Cc2ccc3ccccc3n2)c2cc(F)ccc2n1CC(=O)O,NF-kB SEAP reporter activity,RAW-Dual [1]; [3],1.06
same,NF-kB SEAP reporter activity,RAW-Dual [1]; [4],1.07
Cc1c(Cc2ccc3ccccc3n2)c2cc(F)ccc2n1CC(=O)O (library stock concentration (final ~1000-fold dilution): 10 mM),NF-kB SEAP reporter activity,RAW-Dual [2]; agonist: LPS (TLR4) 0.1 ug/mL,1.03
same,NF-kB SEAP reporter activity,RAW-Dual [2]; [5],1.01
same,NF-kB SEAP reporter activity,RAW-Dual [2]; [6],1.07
same,NF-kB SEAP reporter activity,RAW-Dual [2]; [7],1.04
NC12CC3CC(CC(C3)C1)C2 (library stock concentration (final ~1000-fold dilution): 2 mM),NF-kB SEAP reporter activity,RAW-Dual [2]; agonist: LPS (TLR4) 0.1 ug/mL,1.08
same,NF-kB SEAP reporter activity,RAW-Dual [2]; [5],0.905
same,NF-kB SEAP reporter activity,RAW-Dual [2]; [6],1.02
same,NF-kB SEAP reporter activity,RAW-Dual [2]; [7],1.19
NC12CC3CC(CC(C3)C1)C2,NF-kB SEAP reporter activity,"RAW-Dual [1]; library stock concentration (final ~1000-fold dilution): 2 mM, agonist: MPLA (TLR4) […]",1.1
CC(C)(C)c1cc(C(=O)/C(C#N)=N/Nc2cccc(Cl)c2)no1 (library stock concentration (final ~1000-fold dilution): 10 mM),NF-kB SEAP reporter activity,RAW-Dual [2]; agonist: LPS (TLR4) 0.1 ug/mL,4.18
COC(c1ccccc1)(c1ccccc1)C(Oc1nc(C)cc(C)n1)C(=O)O (centres undefined),NF-kB SEAP reporter activity,RAW-Dual [1]; [3],0.886
same,NF-kB SEAP reporter activity,RAW-Dual [1]; [4],0.984
COC(c1ccccc1)(c1ccccc1)C(Oc1nc(C)cc(C)n1)C(=O)O (centres undefined) (library stock concentration (final ~1000-fold dilution): 10 mM),NF-kB SEAP reporter activity,RAW-Dual [2]; agonist: LPS (TLR4) 0.1 ug/mL,1.02
same,NF-kB SEAP reporter activity,RAW-Dual [2]; [5],0.988
same,NF-kB SEAP reporter activity,RAW-Dual [2]; [6],0.873
same,NF-kB SEAP reporter activity,RAW-Dual [2]; [7],1.14
Cc1cc(=O)n(-c2ccccc2)n1C,NF-kB SEAP reporter activity,RAW-Dual [1]; [3],1.1
same,NF-kB SEAP reporter activity,RAW-Dual [1]; [4],1.05
Cc1cc(=O)n(-c2ccccc2)n1C (library stock concentration (final ~1000-fold dilution): 10 mM),NF-kB SEAP reporter activity,RAW-Dual [2]; agonist: LPS (TLR4) 0.1 ug/mL,1.03
same,NF-kB SEAP reporter activity,RAW-Dual [2]; [5],1.03
same,NF-kB SEAP reporter activity,RAW-Dual [2]; [6],0.928
same,NF-kB SEAP reporter activity,RAW-Dual [2]; [7],1.28
O=c1cc(-c2ccc(O)cc2)oc2c(C3OCC(O)C(O)C3O)c(O)c(C3OC(CO)C(O)C(O)C3O)c(O)c12 (centres undefined) (library stock concentration (final ~1000-fold dilution): 10 mM),NF-kB SEAP reporter activity,RAW-Dual [2]; agonist: LPS (TLR4) 0.1 ug/mL,1.45
same,NF-kB SEAP reporter activity,RAW-Dual [2]; [5],1.03
same,NF-kB SEAP reporter activity,RAW-Dual [2]; [6],1.08
same,NF-kB SEAP reporter activity,RAW-Dual [2]; [7],1.08
O=c1cc(-c2ccc(O)cc2)oc2c(C3OCC(O)C(O)C3O)c(O)c(C3OC(CO)C(O)C(O)C3O)c(O)c12 (centres undefined),NF-kB SEAP reporter activity,RAW-Dual [1]; [3],1.02
same,NF-kB SEAP reporter activity,RAW-Dual [1]; [4],1.05
Cc1ccc(-c2ncc(Cl)cc2-c2ccc(S(C)(=O)=O)cc2)cn1 (library stock concentration (final ~1000-fold dilution): 10 mM),NF-kB SEAP reporter activity,RAW-Dual [2]; agonist: LPS (TLR4) 0.1 ug/mL,1.28
same,NF-kB SEAP reporter activity,RAW-Dual [2]; [5],1
same,NF-kB SEAP reporter activity,RAW-Dual [2]; [6],0.96
same,NF-kB SEAP reporter activity,RAW-Dual [2]; [7],0.856
Cc1ccc(-c2ncc(Cl)cc2-c2ccc(S(C)(=O)=O)cc2)cn1,NF-kB SEAP reporter activity,RAW-Dual [1]; [4],1.05
CCOCCn1c(N2CCCN(C)CC2)nc2ccccc21.O=C(O)/C=C/C(=O)O.O=C(O)/C=C/C(=O)O,NF-kB SEAP reporter activity,RAW-Dual [1]; [3],1.11
same,NF-kB SEAP reporter activity,RAW-Dual [1]; [4],1.1
CCOCCn1c(N2CCCN(C)CC2)nc2ccccc21.O=C(O)/C=C/C(=O)O.O=C(O)/C=C/C(=O)O (library stock concentration (final ~1000-fold dilution): 10 mM),NF-kB SEAP reporter activity,RAW-Dual [2]; agonist: LPS (TLR4) 0.1 ug/mL,0.921
same,NF-kB SEAP reporter activity,RAW-Dual [2]; [5],0.836
same,NF-kB SEAP reporter activity,RAW-Dual [2]; [6],1.06
same,NF-kB SEAP reporter activity,RAW-Dual [2]; [7],0.773
CC(=O)NCC(=O)O.CC(=O)NCC(=O)O.N=C(N)c1ccc(N=NNc2ccc(C(=N)N)cc2)cc1,NF-kB SEAP reporter activity,RAW-Dual [1]; [3],0.718
same,NF-kB SEAP reporter activity,RAW-Dual [1]; [4],0.922
CC(=O)NCC(=O)O.CC(=O)NCC(=O)O.N=C(N)c1ccc(N=NNc2ccc(C(=N)N)cc2)cc1 (library stock concentration (final ~1000-fold dilution): 10 mM),NF-kB SEAP reporter activity,RAW-Dual [2]; agonist: LPS (TLR4) 0.1 ug/mL,0.908
same,NF-kB SEAP reporter activity,RAW-Dual [2]; [5],0.922
same,NF-kB SEAP reporter activity,RAW-Dual [2]; [6],1.18
same,NF-kB SEAP reporter activity,RAW-Dual [2]; [7],1.23
O=C(c1cc(-c2cc3c(cc2C(=O)N2Cc4ccccc4CC2CN2CCOCC2)OCO3)n2c1CCCC2)N(c1ccccc1)c1ccc(O)cc1 (centres undefined) (library stock concentration (final ~1000-fold dilution): 10 mM),NF-kB SEAP reporter activity,RAW-Dual [2]; agonist: LPS (TLR4) 0.1 ug/mL,0.752
same,NF-kB SEAP reporter activity,RAW-Dual [2]; [5],0.499
same,NF-kB SEAP reporter activity,RAW-Dual [2]; [6],0.22
same,NF-kB SEAP reporter activity,RAW-Dual [2]; [7],0.326
O=C(c1cc(-c2cc3c(cc2C(=O)N2Cc4ccccc4CC2CN2CCOCC2)OCO3)n2c1CCCC2)N(c1ccccc1)c1ccc(O)cc1 (centres undefined),NF-kB SEAP reporter activity,RAW-Dual [1]; [3],0.848
same,NF-kB SEAP reporter activity,RAW-Dual [1]; [4],1.17
CC(C)OC(=O)C(C)NP(=O)(OCC1OC(n2ccc(=O)[nH]c2=O)C(C)(F)C1O)Oc1ccccc1 (centres undefined),NF-kB SEAP reporter activity,RAW-Dual [1]; [3],1.06
same,NF-kB SEAP reporter activity,RAW-Dual [1]; [4],0.991
CC(C)OC(=O)C(C)NP(=O)(OCC1OC(n2ccc(=O)[nH]c2=O)C(C)(F)C1O)Oc1ccccc1 (centres undefined) (library stock concentration (final ~1000-fold dilution): 10 mM),NF-kB SEAP reporter activity,RAW-Dual [2]; agonist: LPS (TLR4) 0.1 ug/mL,1.33
same,NF-kB SEAP reporter activity,RAW-Dual [2]; [5],1.07
same,NF-kB SEAP reporter activity,RAW-Dual [2]; [6],1.14
same,NF-kB SEAP reporter activity,RAW-Dual [2]; [7],1.08
O=C(/C=C/c1cccnc1)c1ccncc1 (library stock concentration (final ~1000-fold dilution): 10 mM),NF-kB SEAP reporter activity,RAW-Dual [2]; agonist: LPS (TLR4) 0.1 ug/mL,1.03
same,NF-kB SEAP reporter activity,RAW-Dual [2]; [5],0.938
same,NF-kB SEAP reporter activity,RAW-Dual [2]; [6],1.21
same,NF-kB SEAP reporter activity,RAW-Dual [2]; [7],1.05
O=C(/C=C/c1cccnc1)c1ccncc1,NF-kB SEAP reporter activity,RAW-Dual [1]; [3],0.871
same,NF-kB SEAP reporter activity,RAW-Dual [1]; [4],0.953
O=C1C(CCC(O)c2ccc(F)cc2)C(c2ccc(O)cc2)N1c1ccc(F)cc1 (centres undefined) (library stock concentration (final ~1000-fold dilution): 10 mM),NF-kB SEAP reporter activity,RAW-Dual [2]; agonist: LPS (TLR4) 0.1 ug/mL,1.42
same,NF-kB SEAP reporter activity,RAW-Dual [2]; [5],0.665
same,NF-kB SEAP reporter activity,RAW-Dual [2]; [6],0.889
same,NF-kB SEAP reporter activity,RAW-Dual [2]; [7],0.589
O=C1C(CCC(O)c2ccc(F)cc2)C(c2ccc(O)cc2)N1c1ccc(F)cc1 (centres undefined),NF-kB SEAP reporter activity,RAW-Dual [1]; [3],0.952
same,NF-kB SEAP reporter activity,RAW-Dual [1]; [4],1.38
OCC1=CC(O)C2C=COC(OC3OC(CO)C(O)C(O)C3O)C12 (centres undefined) (library stock concentration (final ~1000-fold dilution): 10 mM),NF-kB SEAP reporter activity,RAW-Dual [2]; agonist: LPS (TLR4) 0.1 ug/mL,1.02
same,NF-kB SEAP reporter activity,RAW-Dual [2]; [5],1.06
same,NF-kB SEAP reporter activity,RAW-Dual [2]; [6],0.976
same,NF-kB SEAP reporter activity,RAW-Dual [2]; [7],0.982
OCC1=CC(O)C2C=COC(OC3OC(CO)C(O)C(O)C3O)C12 (centres undefined),NF-kB SEAP reporter activity,RAW-Dual [1]; [4],0.996
COC1CCN(C(=O)c2cc(Cc3n[nH]c(=O)c4ccccc34)ccc2F)CC1 (library stock concentration (final ~1000-fold dilution): 10 mM),NF-kB SEAP reporter activity,RAW-Dual [2]; agonist: LPS (TLR4) 0.1 ug/mL,1.74
same,NF-kB SEAP reporter activity,RAW-Dual [2]; [5],1.11
same,NF-kB SEAP reporter activity,RAW-Dual [2]; [6],1.12
same,NF-kB SEAP reporter activity,RAW-Dual [2]; [7],1.78
COC1CCN(C(=O)c2cc(Cc3n[nH]c(=O)c4ccccc34)ccc2F)CC1,NF-kB SEAP reporter activity,RAW-Dual [1]; [3],1.12
same,NF-kB SEAP reporter activity,RAW-Dual [1]; [4],1.27
